The values below are quoted from earlier work in patent publication EP1134585B1, “Biosensor and method for the monitoring of herbicides” (CONSIGLIO NAZIONALE DELLE RICERCHE, priority 2000, dated 2001).

Where two headings read alike, the source gives them in different places.

Data set [1] deals with D1 protein Ser264->Gly. Particulars: Amarenthus hybridus; cited from earlier work.
Data set [2] concerns D1 protein Ser264->Gly. Particulars: Amaranthus bouchoniil; cited from earlier work.
For a further data set, the system named is D1 protein Set264->Gly. The settings on record: Brassica camptestrsl; cited from earlier work.
Data set [3] deals with D1 protein Ser265(264)->Ala. Particulars: Euglena, code ZR; cited from earlier work.
A further data set has as its system D1 protein Arg263->Gly. Particulars: cited from earlier work.
Data set [4] addresses D1 protein Ser264->Ala (Synechococcus elongatus, UniProt P04996, S264A). Particulars: Synechococcus sp. PCC7942, code Dil; cited from earlier work.
The test system of data set [5] is D1 protein Ser264->Thr. Particulars: Nicotiana tabacum (cell culture); cited from earlier work.
For data set [6], the system named is D1 protein Val219->Ile A1a251->Thr. The settings on record: codes LA, L6 L7; cited from earlier work.
For data set [7], the system named is D1 protein Val219->lIe la251->Val. The settings on record: codes LI, L8; cited from earlier work.
In data set [8] the test system is D1 protein Val219->Ile Thr220->Ala Ser270->Tyr. Particulars: code L5; cited from earlier work.
Data set [9] relates to D1 protein Val219->Ile Thr220->Ala Ser270->Phe. Particulars: code L3; cited from earlier work.
The test system of data set [10] is D1 protein Val219->Ile A1a251->Val Asn266->Thr. Particulars: code L2; cited from earlier work.
The test system of data set [11] is D1 protein Ser264->Thr. Particulars: Euglena, code MSI; cited from earlier work.
The target of another data set is T1, D1 protein Asn266->Thr (Synechocystis sp., UniProt P14660, N266T).
T1 construct: host or cells: mutant Synechocystis PCC6714
The settings on record: code loxl; cited from earlier work.

A further data set concerns D1 protein Ser264→Gly. Particulars: cited from earlier work.
The subject of another data set is D1 protein Ile248->Thr. Particulars: code M30; cited from earlier work.
For data set [12], the target named is T2, D1 protein Phe211->Ser Ala251->Val (Synechocystis sp., UniProt P14660, A251V/F211S).
T2 construct: host or cells: mutant Synechocystis PCC6714
The settings on record: code AzV; cited from earlier work.

A further data set has as its system D1 protein Ala251-Val. Particulars: Synechocystis PCC6714, code M35; cited from earlier work.
For data set [13], the system named is D1 protein Ser264->Ala. The settings on record: Synechocistis sp. PCC6714, code DCMU IIA; cited from earlier work.

In the case of `CN(C)C(=O)Nc1ccccc1` [Fenuron], the “R/S Resistance” value in the data set on D1 protein Ser264->Gly [1] is “Fenuron 1,1-1,4”; in the data set on D1 protein Ser264->Gly [2] it was “Fenuron 13,5”.
In the case of `CCNc1nc(NC(C)C)nc(SC)n1` [Ametryn], the “R/S Resistance” value in the data set on D1 protein Ser264->Gly [1] is “Ametryn 500”; in the data set with D1 protein Set264->Gly, “Ametryn 600”.
Turning to `c1cnc2c(c1)ccc1cccnc12` [o-Phenanthroline], the “R/S Resistance” value in data set [3] is on record as “o-Phenathroline 5”.
For the compound `CC1CCCCC1NC(=O)Nc1ccccc1` (stereo not shown) [Siduron], in [3], the “R/S Resistance” value was “Siduron 2,5”.
On to `CCNc1nc(NC(C)(C)C)nc(SC)n1` [Terbutryn], for which, in the data set with D1 protein Arg263->Gly, the “R/S Resistance” value was “Terbutryn 8”.
In the case of `CCC(C)n1c(=O)[nH]c(C)c(Br)c1=O` (stereo not shown) [Bromacil], the “R/S Resistance” value at D1 protein Ser264->Ala [4] is “Bromacil 33”; with D1 protein Ser264->Gly [1], “Bromacil 20”; with D1 protein Set264->Gly it was “Bromacil 40”; with D1 protein Ser264->Thr [5], “Bromacil 64”; in [6], “Bromacil 2-25”; in data set [7] it was “Bromacil 15-20”. Also, the entries for the “R/S Resistance” value in data set [8], in data set [9] and in data set [10] were “Bromacil 2”, “Bromacil 5” and “Bromacil 120”, respectively.
With `CCC(=O)Nc1ccc(Cl)c(Cl)c1` [Propanil], the “R/S Resistance” value is “Propanil 2-71” in [6]; “Propanil 14-15” in data set [7]; “Propanil 13” in data set [8]; “Propanil 2” in data set [9]; “Propanil 2” in data set [10].
With `O=c1[nH]c2c(c(=O)n1C1CCCCC1)CCC2` [Lenacil], the “R/S Resistance” value in the data set on D1 protein Ser264->Gly [1] is on record as “Lenadi 1880-2040”; with D1 protein Ser264->Gly [2], “Lanacil 4,4”.
With `CN(C)C(=O)Nc1ccc(Oc2ccc(Cl)cc2)cc1` [Chloroxuron], the “R/S Resistance” value is listed as “Chloroxuron 480” in data set [3] and “Chloroxuron 3” in the data set with D1 protein Ser264->Gly [1].
Regarding `CNC(=O)Nc1nc2ccccc2s1` [Benzthiazuron], the “R/S Resistance” value with D1 protein Ser264->Thr [11] is given as “Berrzthiazuron 20”.
Consider `CCCCN(C)C(=O)Nc1ccc(Cl)c(Cl)c1` [Neburon], for which the “R/S Resistance” value in data set [3] was “Neburon 2,3”.
Consider `CC(C)N1C(=O)c2ccccc2NS1(=O)=O` [Bentazon], for which, in the data set with D1 protein Ser264->Gly [1], the “Supersensitivity R/S” value is listed as “Bentazon 0,2”.
With `N#Cc1cc(Br)c(O)c(Br)c1` [Bromoxynil], the “R/S Resistance” value at D1 protein Asn266->Thr is recorded as “Bromoxynil 15”.
`CCC(C)c1cc([N+](=O)[O-])cc([N+](=O)[O-])c1O` (stereo not shown) [Dinoseb]: the results for the “R/S Resistance” value in data set [6], in [9] and in data set [10] were “Dinoseb 4-8”, “Dinoseb 1,1” and “Dinoseb 10”, respectively.
As for `CC(C)Cc1cc([N+](=O)[O-])cc([N+](=O)[O-])c1O` [i-Dinoseb], in the data set on D1 protein Ser264→Gly, the “Supersensitivity R/S” value is listed as “i-Dinoseb 0,5”.
With `CSc1nnc(C(C)(C)C)c(=O)n1N` [Metribuzin], the “R/S Resistance” value with D1 protein Ile248->Thr is recorded as “Metribuzin 28”; on D1 protein Ser264->Ala [4], “Metribuzin 5000”; with D1 protein Ser264->Thr [5], “Metribuzin 290”; in the data set on D1 protein Ser264->Thr [11] it was “Metribuzin 63”; in data set [12], “Metnbuzin 4000”; in data set [6], “Metribuzin 6-794”. Moreover, the “R/S Resistance” value is “Metribuzin 25” in [8]; “Metribuzin 25” in data set [9]; “Metribuzin 251” in data set [10]; “Metribuzin 200” with D1 protein Ala251-Val; “Metribuzin >3000” in the data set on D1 protein Ser264->Ala [13].
As for `CCNc1nc(NC(C)C)nc(OC)n1` [Atraton], the “R/S Resistance” value in the data set with D1 protein Ser264->Gly [1] is reported as “Atraton 100”; in the data set on D1 protein Set264->Gly it was “Atraton 800”.
